Laboratory results: PubChem BioAssay AID1468 (National Center for Advancing Translational Sciences (NCATS), 2008)
Out of some 280,000 compounds screened, about 1,100 (0.39%) were called active. The shares of active, inactive and inconclusive entries below differ from those in the screen. Calls follow the shape of the dose curve; as a rule, active = well fitted inhibition curve with a large enough effect; inconclusive = small, poorly fitted or top-dose-only effect, or effect the other way; inactive = flat fitted curve, though single readings scatter. Potencies of inconclusive entries are doubtful fits and often do not repeat.

Each molecule was assayed against Microtubule-associated protein tau (Homo sapiens) (UniProt P10636) (assay: qHTS for Inhibitors of Tau Fibril Formation, Fluorescence Polarization). Details: K18 P301L tau heparin fibrillization, Alexa594 FP, 6 h; series mostly up to 57.7 µM; activity, negative = inhibition: at the top concentration.
Summary of the method: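 FP of Alexa 594-tau after heparin (20 uM) induction. Substrate: human K18 P301L, 15 uM unlabeled, 0.24 uM labeled. Buffer 100 mM sodium acetate pH 7. 6 hr, 37 C.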
% is scaled to controls: 0 for no effect and ±100 for the full control effect; potency is read from the fitted curve at half-maximal effect; tags tell the direction and shape of the fitted curve.
Also: nearly all actives have a fitted effect of over 55% in size.

UniProt P10636, sequence (P10636 whole entry, looked up): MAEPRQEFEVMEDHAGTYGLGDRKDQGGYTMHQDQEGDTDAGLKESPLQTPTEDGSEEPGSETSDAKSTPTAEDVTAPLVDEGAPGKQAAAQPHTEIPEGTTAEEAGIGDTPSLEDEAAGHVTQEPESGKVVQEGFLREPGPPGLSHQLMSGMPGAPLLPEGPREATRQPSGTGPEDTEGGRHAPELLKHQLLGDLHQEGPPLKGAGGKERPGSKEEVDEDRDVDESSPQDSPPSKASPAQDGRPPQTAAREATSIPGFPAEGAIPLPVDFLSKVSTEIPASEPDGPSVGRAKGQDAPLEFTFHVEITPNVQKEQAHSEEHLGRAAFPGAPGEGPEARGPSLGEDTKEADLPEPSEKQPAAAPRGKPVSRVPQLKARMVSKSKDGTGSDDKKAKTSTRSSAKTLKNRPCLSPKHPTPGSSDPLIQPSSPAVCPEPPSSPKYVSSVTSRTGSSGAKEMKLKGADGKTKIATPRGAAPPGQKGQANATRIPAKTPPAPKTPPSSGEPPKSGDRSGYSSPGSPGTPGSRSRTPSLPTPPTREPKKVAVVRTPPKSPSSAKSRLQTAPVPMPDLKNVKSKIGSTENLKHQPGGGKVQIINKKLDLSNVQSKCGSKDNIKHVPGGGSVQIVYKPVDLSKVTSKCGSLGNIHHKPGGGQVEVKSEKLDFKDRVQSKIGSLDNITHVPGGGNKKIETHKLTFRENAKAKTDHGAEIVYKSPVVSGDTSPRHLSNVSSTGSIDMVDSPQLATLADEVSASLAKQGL

Potency, inconclusive:
CN1c2ccccc2C(=O)/C(=C\Nc2ccc(F)cc2)S1(=O)=O 44.7 µM [inhibitor, single point]
O=S(=O)(Nc1ccc(C(F)(F)F)cc1)c1ccc2c(c1)OCCO2 15.8 µM [inhibitor, single point]
COc1ccc(C2=CC3=C(Br)C(=O)C(C)(OC(=O)c4ccc(Cl)nc4)C(=O)C3=CO2)cc1 (configuration not stated) 39.8 µM [inhibitor, single point]
O=C(Nc1ccc(F)cc1)c1cnc(-c2ccccc2)nc1-c1ccccc1 5.01 µM [inhibitor, partial curve]
COc1ccc(-c2c(-c3ccc(OCC(=O)NN)cc3O)n[nH]c2C(F)(F)F)cc1 31.6 µM [inhibitor, single point]
CCCn1cc(NC(=O)c2cc(-c3ccccc3)on2)cn1 15.8 µM [inhibitor, single point]
O=S(=O)(Nc1ccc(Oc2ncccn2)c(Cl)c1)c1ccc(Cl)cc1 44.7 µM [inhibitor, single point]
COc1ccc(OC)c(Nc2nc(-c3sc(C)nc3C)cs2)c1 17.8 µM [activator, single point]
COC(=O)c1[nH]c2ccc(F)cc2c1NC(=O)C1=COCCO1 7.08 µM [inhibitor, partial curve, poor fit]
O=C(OC1CCOC1=O)c1cc(-c2ccc(Cl)cc2)nc2ccccc12 (configuration not stated) 15.8 µM [inhibitor, partial curve]
O=C(COC(=O)/C=C/c1ccccc1)Nc1cccc(Oc2ccccc2)c1 10 µM [inhibitor, partial curve, poor fit]
COc1ccc(/C=C/C(=O)c2ccncc2)c2ccccc12 44.7 µM [activator, single point]
CCOC(=O)c1ccc(-c2ccc(/C=N/NC(=O)CN(c3ccccc3Cl)S(C)(=O)=O)o2)cc1 44.7 µM [inhibitor, single point]
Cc1ccc[n+](C2C(c3ccc([N+](=O)[O-])cc3)C(C#N)=C([S-])NC2(O)C2CC2)c1 (configuration not stated) 1.41 µM [activator, partial curve]
COc1ccc(OC)c(C(=O)CN2C(=O)N(c3ccc(C)cc3)S(=O)(=O)c3ccccc32)c1 12.6 µM [inhibitor, partial curve]
COC(=O)c1c(-c2cccs2)csc1NC(=O)c1ccc(C)cc1 31.6 µM [inhibitor, partial curve]
Clc1cc(Br)ccc1OCCN1CCOCC1 28.2 µM [inhibitor, single point]
COc1ccc(N2C(=O)C(CC(=O)Nc3ccccc3)N(Cc3ccccn3)C2=S)cc1 (configuration not stated) 39.8 µM [inhibitor, single point]
COc1ccc(OC)c(N=c2oc3cc(O)ccc3cc2C(N)=O)c1 39.8 µM [activator, single point]
COc1ccccc1CNC(=O)CCCCn1c(=O)c2ccccc2n(CC(=O)Nc2cccc(Cl)c2)c1=O 28.2 µM [inhibitor, partial curve]
CCOc1ccc(-c2n[nH]c(C)c2Oc2ccc(OC)cc2)c(O)c1 0.355 µM [inhibitor, partial curve, poor fit]
COCOc1cc(OC)ccc1C(=O)/C=C/c1ccc([N+](=O)[O-])cc1 44.7 µM [inhibitor, single point]
CCOC(=O)CNC(=O)CSc1nc2cccnc2n1C1CCCCC1 15.8 µM [activator, single point]
CC(OC(=O)c1ccco1)C(=O)NCc1cccs1 (configuration not stated) 0.0224 µM [inhibitor, full curve, poor fit]
Cc1c(-c2nnc(SCC(=O)Nc3ccc(Br)cc3)o2)nnn1-c1ccc(F)cc1 22.4 µM [inhibitor, single point]
COc1cc(/C=C(\C#N)c2nc3ccccc3[nH]2)cc(Br)c1OCc1ccc(F)cc1 3.98 µM [inhibitor, partial curve]
CCCCCC(=O)NC(=S)Nc1cccc(-c2nc3ncccc3o2)c1 28.2 µM [inhibitor, single point]
COc1ccc(-c2nc(-c3ccccc3)c(-c3cc([N+](=O)[O-])ccc3C)[nH]2)cc1OC 22.4 µM [activator, partial curve]
Cc1cccc(C(=O)Nc2ccc(C(=O)OCc3cc(=O)n4c(C)csc4n3)cc2)c1 39.8 µM [inhibitor, single point]
CC(C)(C)NC(=O)CSc1nc(-c2ccc(F)cc2)cc(C(F)(F)F)n1 28.2 µM [inhibitor, single point]
O=C(NCc1ccccc1)c1ccc2c(c1)N(Cc1ccccc1)C(=O)c1ccccc1S2(=O)=O 35.5 µM [inhibitor, partial curve, poor fit]
Cc1ccc(NC(CC(=O)c2ccccc2)C(=O)O)cc1Cl (configuration not stated) 39.8 µM [inhibitor, single point]
Cn1nc(-c2ccccc2F)c2cc(C(=O)Nc3cc(F)ccc3F)sc21 3.98 µM [inhibitor, partial curve]
Cn1c(N)c(C(=O)COC(=O)[C@H](Cc2ccccc2)N2C(=O)c3ccccc3C2=O)c(=O)n(C)c1=O 3.55 µM [inhibitor, partial curve, poor fit]
Cc1nn2c(C)c(C(=O)NC(C)(C)C)cnc2c1-c1ccc(F)cc1 8.91 µM [inhibitor, partial curve, poor fit]
COc1cc(N=c2ssnc2Cl)cc(OC)c1OC 25.1 µM [inhibitor, partial curve]
CSc1cccc(NC(=S)N2CCCN(Cc3cccc(Cl)c3)C2)c1 39.8 µM [inhibitor, single point]
Cn1nc(-c2ccccc2F)c2cc(C(=O)Nc3ccc4c(c3)OCCO4)sc21 39.8 µM [inhibitor, single point]
CCCn1c(-c2ccc(F)cc2)nc2c(N3CCN(C)CC3)nc(C)nc21 1.12 µM [inhibitor, full curve, poor fit]
CC(=O)NNC(=O)c1[nH]c2ccc(Cl)cc2c1-c1ccccc1 22.4 µM [inhibitor, partial curve]
CC(C)Cn1c(N)c(C(=O)NCc2cccs2)c2nc3ccccc3nc21 22.4 µM [inhibitor, partial curve]
Cc1ccc(S(=O)(=O)c2c(O)cc(C)c(NS(=O)(=O)c3ccc(Cl)cc3)c2C)cc1 31.6 µM [inhibitor, partial curve, poor fit]
Cc1sc2ncnc(N/N=C/c3ccccc3O)c2c1C 2.51 µM [activator, partial curve, poor fit]
CCOc1ccc(-c2nc(N)ncc2Oc2cccc(OC)c2)c(O)c1 39.8 µM [inhibitor, single point]

Potency, active:
Cc1cccc(NC(=O)Nc2cccc(Oc3c(F)c(F)c(F)c(F)c3F)c2)c1 8.91 µM
O=[N+]([O-])c1ccc(N=Nc2c(Cl)cc(O)cc2Cl)cc1 31.6 µM

activity, negative = inhibition, inactive:
Cc1cccc(CN2CCN(CC(=O)Nc3c(C)cccc3C)S2(=O)=O)c1 2.22%
COc1cc2c(cc1NC(=O)C(C)OC(=O)C1CC(=O)N(Cc3ccco3)C1)oc1ccccc12 (configuration not stated) 5.2%
N#CC1=C(SCC(=O)NC2CCCCC2)NC(=O)CC1c1ccco1 (configuration not stated) -1.35%
COCc1cc(C)nc(N/N=C/c2ccc(-c3ccc(Cl)cc3[N+](=O)[O-])o2)c1C#N -0.691%
CCOC(=O)c1ccc2c(c1)N(Cc1ccc(F)cc1Cl)C(=O)c1ccccc1S2 -3.38%
Clc1ccc(C2=NN=C3COc4ccccc4N3C2)cc1 0.897%
CC(=O)Nc1ccc(S(=O)(=O)N(C)c2ccccc2)cc1 -2.98%
CCN(CC)CCNc1nc2ccccc2n1C 5.41%
O=C(c1ccc2nc(-c3ccco3)c(-c3ccco3)nc2c1)N1CCN(c2ccccc2)CC1 -2.37%
O=c1c(-c2cc(-c3ccccc3)nc3c2COc2ccccc2-3)coc2ccc(Cl)cc12 -8.18%
Cc1ccc(C(=O)N/N=C\c2ccccn2)cn1 -7.64%
CCCc1[nH]nc2c1C(c1ccc(OC)cc1OC)C(C#N)=C(N)O2 (configuration not stated) 9.16%
Cc1cccc(N2CCN(C(=O)c3csc4ccccc34)CC2C)c1 (configuration not stated) 5.75%
CCOc1cc(/C=C2\SC(=S)N(N3CCOCC3)C2=O)ccc1O 1.12%
O=C(c1cnc2c(c1)COc1ccccc1-2)c1ccccc1O -8.08%
CC(C)CC(NC(N)=O)C(=O)Nc1ccc2c(c1)OCO2 (configuration not stated) 6.47%
COc1ccccc1C(=O)Nc1ccc(C(=O)OCc2cc(=O)n3nc(C4CC4)sc3n2)cc1 3.48%
COC(=O)C1=C(CSc2nncn2C)NC(=O)NC1c1cc(C)ccc1C (configuration not stated) -5.86%
COc1ccc(NC(=O)Cn2c(=O)n(Cc3ccccc3)c(=O)c3sc4ccccc4c32)cc1 -17.5%
CC1(C)CC(=O)C2=C(C1)N(Cc1ccco1)C(=O)C2(NC(=O)c1ccc(Cl)cc1Cl)C(F)(F)F (configuration not stated) 3.41%
CC(C)c1nn2c(=O)cc(COC(=O)c3ccco3)nc2s1 -4.35%
